# Source: PubChem BioAssay AID1745853 (National Center for Advancing Translational Sciences (NCATS), 2022)
# “And” between values parts separate entries of the source, which are not always exact repeats. Equal values may be shown once. The list shows a part of the results. Further columns of the screen follow, without active or inactive calls.
# How the values were obtained:
# Test in all cases: Primary Screen for Target Class Profiling of Small Molecule Inhibitors of Methyltransferases
# [1] = target: Glycine N-methyltransferase (Homo sapiens) (UniProt Q14749); settings: purified enzyme, MTase-Glo SAH luminescence; measured here: GNMT inhibition; at 40 µM; stronger effect = lower value
# How it was run: (§1)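 Each enzyme was reacted with SAM and its substrate, with compounds tested once at 40 uM; SAH formed was read by MTase-Glo luminescence.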
# [2] = target: Guanidinoacetate N-methyltransferase (Homo sapiens) (UniProt Q14353); settings: purified enzyme, MTase-Glo SAH luminescence; measured here: GAMT inhibition; at 40 µM; stronger effect = lower value
# How it was run: as §1
# [3] = target: Histamine N-methyltransferase (Homo sapiens) (UniProt P50135); settings: purified enzyme, MTase-Glo SAH luminescence; measured here: HNMT inhibition; at 40 µM; stronger effect = lower value
# How it was run: as §1
# [4] = target: Nicotinamide N-methyltransferase (Homo sapiens) (UniProt P40261); settings: purified enzyme, MTase-Glo SAH luminescence; measured here: NNMT inhibition; at 40 µM; stronger effect = lower value
# How it was run: as §1
# [5] = target: Phenylethanolamine N-methyltransferase (Homo sapiens) (UniProt P11086); settings: purified enzyme, MTase-Glo SAH luminescence; measured here: PNMT inhibition; at 40 µM; stronger effect = lower value
# How it was run: as §1
# % is scaled to controls: 0 for no effect and ±100 for the full control effect.
SMILES,"activity change, negative = inhibition [1]","activity change, negative = inhibition [2] [%]","activity change, negative = inhibition [3]","activity change, negative = inhibition [4]","activity change, negative = inhibition [5]"
O=C(Cn1ccc2cc(S(=O)(=O)N3CCCC3)ccc21)NCc1ccccc1Br,4.08%,3.86,7.51%,3.42%,3.89%
CC1(C(=O)NCc2ccccc2)Cn2c(ccc2-c2ccco2)C(=O)N1Cc1ccc(F)cc1 (stereo not drawn),-2.02%,4.92,1.9%,-2%,-3.16%
CCCCN1C(=O)c2cc(C(=O)Nc3ccc(C)cc3)nn2CC1(C)C(=O)NC1CCCC1 (stereo not drawn),4.66%,0,-15.7%,1.86%,2.61%
COc1ccc2cc3n(c2c1)CC(C)(C(=O)NC1CCCCC1)N(Cc1ccc(F)cc1)C3=O (stereo not drawn),1.73%,0,2.58%,7.4%,0.207%
O=C1NC(=NC2CCCC2)C2(CCN(Cc3cccnc3)CC2)N1c1cc(F)cc(F)c1,-2.82%,-3.43,-5.93%,-7.05%,6.54%
COc1ccc(-c2cc(C(O)C3CCCCN3)c3ccccc3n2)cc1 (stereo not drawn),-9.01%,-6.4,-12.4%,-18.9%,-5.36%
CCc1ccc(NC(=O)Cn2c(=O)oc3cc(S(=O)(=O)N4CCCCC4)ccc32)cc1,-7.97%,-0.301,-6.51%,-23.4%,-11%
Cc1cc2ncc(C(=O)N3CCOCC3)cn2n1,-1.36%,-1.15,1.77%,4.48%,-0.093%
Cc1cccc(CNC(=O)C2(C)Cn3cnc(C(=O)NC4CC4)c3C(=O)N2C2CC2)c1 (stereo not drawn),-5.02%,3.34,-3.15%,-6.07%,-2.95%
CCCCc1oc2ccccc2c1C(=O)c1cc(I)c(OCCN(CC)CC)c(I)c1,-0.586%,8.13,-10.8%,-10.8%,4.2%
Cc1ccccc1NC(=O)CSc1nnc2n(CC(C)C)c(=O)c3ccc(C(=O)NC(C)C)cc3n12,-2.46%,1.98,0.948%,-2.46%,-2.35%
O=C1CCCC2=C1C(c1ccccc1I)N=C(Nc1nc3ccccc3o1)N2 (stereo not drawn),,-8.8,,-28.4%,-3.47%
COc1ccc(-c2nnc(-c3ccc(OC)c(S(=O)(=O)N4CCC(C)CC4)c3)o2)cc1OC,-3.53%,0.729,11.7%,-5.09%,8.65%
CC(C)(C)c1nnc(NS(=O)(=O)c2ccccc2)s1,6.27%,4.49,7.92%,-8.28%,4.69%
CCn1cc(-c2ccc(C)cc2)cc1C(=O)O,-8.02%,-9.57,-3.14%,-10.5%,-3.68%
CCC(C)NC(=O)c1ccc2c(=O)n(C)c3nn(CC(=O)Nc4cccc(F)c4)c(=O)n3c2c1 (stereo not drawn),4.37%,0,-1.71%,0.849%,4.08%
O=C(CCc1nnc2n(Cc3ccccc3)c(=O)c3ccccc3n12)NCCN1CCCC1,-3.75%,0,-28.3%,5.07%,4.25%
C=CCn1c(=O)c2ccc(C(=O)NC(C)CC)cc2n2c(=O)n(CC(N)=O)nc12 (stereo not drawn),0.505%,-1.09,-0.231%,-3.53%,-5.63%
C[C@H]1[C@H](C)CC[C@]2(C(=O)O[C@@H]3O[C@H](CO)[C@@H](O)[C@H](O)[C@H]3O)CC[C@]3(C(=O)O)C(=CCC4[C@@]5(C)CC[C@H](O[C@@H]6O[C@H](CO)[C@@H](O)[C@H](O)[C@H]6O)C(C)(C)C5CC[C@]43C)[C@H]12 (stereo partly drawn),0.269%,-1.22,7.46%,-15.1%,5.26%
COc1cc2c(NC3CCN(CC4CCCCC4)CC3)nc(N3CCCN(C(C)C)CC3)nc2cc1OCCCN1CCCCC1,-0.782% and 13.1%,13.2,-78% and -39.4%,-18.5% and 4.11%,-1.05% and 5.07%
O=C(O)c1cc2cc(F)ccc2[nH]1,-11.8%,-1.93,-2.49%,-7.72%,-0.344%
CC(C)CCNC(=O)C1c2c(n(C)c3ccccc23)SCC(=O)N1c1cccc(F)c1 (stereo not drawn),10.7%,0,8.91%,4.13%,0.051%
COc1ccc(CNC(=O)CNC(=O)C2(C)Cn3c(cc4ccccc43)C(=O)N2C)cc1 (stereo not drawn),-3.91%,4.47,-2.18%,2.76%,-1.2%
CCCN1C(=O)c2c(C(=O)NCc3ccc(Cl)cc3)ncn2CC1(C)C(=O)NCCC(C)C (stereo not drawn),1.01%,0.197,2.87%,0.756%,6.57%
CCCN1C(=O)c2c(C(=O)NCc3ccccn3)ncn2CC1(C)C(=O)NCc1ccc(C)cc1 (stereo not drawn),-1.29%,0,5.13%,3.16%,0.977%
COC(=O)[C@H](O)[C@H]1C(C)(C)[C@H](OC(C)=O)[C@@]2(O)C(=O)[C@]1(C)C1CC[C@]3(C)C(CC(=O)O[C@H]3c3ccoc3)[C@]13O[C@@H]32 (stereo partly drawn),2.26%,-1.98,5.22%,-11.2%,-1.2%
COc1cccc(Nc2ncc3c(n2)C(C)(C(=O)NC2CCOCC2)CC3)c1 (stereo not drawn),-8.45%,-1.9,-3.29%,-7.3%,7.18%
O=C(Cc1ccccc1Cl)NC1CCN(c2cc(-c3cccs3)[nH]n2)C1 (stereo not drawn),-10.2%,-9.33,-5.72%,-18.9%,-17.4%
CC1(C)CCC2(C(=O)O)C(O)CC3(C)C(=CCC4C5(C)CCC(OC6OC(CO)C(O)C(O)C6OC6OC(CO)C(O)C(O)C6OC6OCC(O)(CO)C6O)C(C)(C)C5CCC43C)C2C1 (stereo not drawn),0%,12.6,3.54%,-1.78%,10.6%
